The other results are listed elsewhere or left out. At the low end of the ranking the order means little.

The assay addresses T1, GST-Rok-C97-191 (UniProt O34857).
T1 sequence: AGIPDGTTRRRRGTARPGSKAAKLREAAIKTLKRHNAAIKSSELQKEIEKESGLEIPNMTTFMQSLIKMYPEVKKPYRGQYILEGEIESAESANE
As to the kind of experiment: protein binding microarray.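 Further: rank score from −0.5 (least bound) to 0.5 (best bound).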 The following applies: Rok is a gene silencer of Bacillus subtilis; high values mean tight binding; most listed sequences are background and not binding sites; double strand, one strand shown.
Take GGTGAAAA: the binding signal is -0.1 E-score.

The sequence CGCATCTC yielded a binding signal of -0.104 E-score.

As for TCCTTCCA, the binding signal is -0.231 E-score.

With CACCGAAA, the binding signal turned out to be 0.0566 E-score.

ACAAGATC gave a binding signal of 0.0358 E-score.

TCACGTCA showed a binding signal of -0.0289 E-score.

GTCCTCAA returned a binding signal of -0.017 E-score.

Turning to GAGACGGC, the binding signal is -0.336 E-score.

The sequence CAGTTATA returned a binding signal of 0.187 E-score.

In turn, AGGGCAAC showed a binding signal of -0.147 E-score.

CTCCAACC yielded a binding signal of -0.249 E-score.

In the case of ATCCTATG, the binding signal amounted to 0.116 E-score.

Take CAGCAATG: the binding signal was -0.023 E-score.

ATAAAGCA displayed a binding signal of -0.0166 E-score.

As to GTGTGGCA, the binding signal was -0.171 E-score.

Take AGGCACAG: the binding signal came to 0.00583 E-score.

CCATCCTC: the binding signal is -0.12 E-score.

As to CGTAGTCC, the binding signal was -0.166 E-score.

Consider ATGTGAGC, for which the binding signal is -0.062 E-score.

Take CTACACGC: the binding signal was 0.123 E-score.

Sequence ACGCATCT showed a binding signal of 0.0269 E-score.

For ATCTATCG, the binding signal was 0.313 E-score.

Sequence GGATCCAA yielded a binding signal of -0.0216 E-score.

With GGCCGCTA, the binding signal is -0.0135 E-score.

AGCCACCG had a binding signal of -0.102 E-score.

As to CTATCACA, the binding signal amounted to 0.255 E-score.

Regarding GAAGGCCA, the binding signal was -0.32 E-score.

Sequence CAGCTAGA displayed a binding signal of 0.124 E-score.

In turn, GTCCTTGA came in with a binding signal of -0.241 E-score.

Regarding ATCAAACC, the binding signal was -0.141 E-score.

Consider ACATCAGG, for which the binding signal worked out at 0.0495 E-score.

Sequence CACTAGAA yielded a binding signal of 0.304 E-score.

AATACAAG yielded a binding signal of 0.245 E-score.

In turn, ATGAGAAG showed a binding signal of 0.175 E-score.

As to AAGCTTCA, the binding signal was -0.115 E-score.

Sequence AAATGTTC came in with a binding signal of 0.16 E-score.

In turn, ATTTCAAA yielded a binding signal of 0.142 E-score.

TACTTCCA had a binding signal of 0.0578 E-score.

CACGTGAG registered a binding signal of -0.0703 E-score.

On to CTGCCGGA, for which the binding signal is -0.145 E-score.

In turn, CTTACTAC gave a binding signal of 0.171 E-score.

Regarding ACTCTAGC, the binding signal is 0.015 E-score.

ATGTTTAC had a binding signal of 0.00161 E-score.

In turn, ATCCATAA gave a binding signal of 0.0949 E-score.

Take GACAGACC: the binding signal was -0.153 E-score.

Regarding GTCCGACA, the binding signal was 0.0838 E-score.

Sequence CGAATGAC returned a binding signal of 0.0266 E-score.

AACCTCGC yielded a binding signal of -0.129 E-score.

In turn, GGGTATTA registered a binding signal of 0.135 E-score.

CGGGTGCA came in with a binding signal of -0.0722 E-score.

For TGGTTGAA, the binding signal was -0.121 E-score.

In turn, CTGTCCTC came in with a binding signal of -0.0912 E-score.

In turn, CTTGGTAA returned a binding signal of 0.114 E-score.

In the case of ATTTCGGA, the binding signal came out at 0.163 E-score.

In turn, ACTCCAAA yielded a binding signal of -0.0283 E-score.

The sequence AAAATAAG gave a binding signal of 0.163 E-score.

In the case of AGTGTTAG, the binding signal was determined as 0.034 E-score.

AGTGCTTA: the binding signal was 0.0679 E-score.

As to CTGTTTAC, the binding signal is -0.0532 E-score.

With AGACGCGG, the binding signal is -0.2 E-score.

In turn, TATTAGCA returned a binding signal of 0.168 E-score.

With ATACGGGC, the binding signal was -0.0493 E-score.

For ATCCCCGG, the binding signal was -0.163 E-score.

For AAAAACTT, the binding signal was -0.191 E-score.

With AGCTGTGA, the binding signal worked out at 0.179 E-score.

Take ATGTTTCA: the binding signal stood at 0.137 E-score.

For ATCGGAAT, the binding signal turned out to be 0.0863 E-score.

As to AATCATTC, the binding signal was 0.0486 E-score.

With ATAGGATA, the binding signal came out at 0.126 E-score.

In turn, ACCATAGG showed a binding signal of 0.13 E-score.

AAAACTAG had a binding signal of 0.364 E-score.

In turn, TTCCGAAA yielded a binding signal of 0.0206 E-score.

In turn, CTCGACTC registered a binding signal of 0.0309 E-score.

The sequence AGTATGGC gave a binding signal of 0.0943 E-score.

Take ATCATATA: the binding signal is 0.288 E-score.

On to CGCCCTTA, for which the binding signal was -0.0937 E-score.

In turn, CAAATCGG gave a binding signal of -0.0325 E-score.

As for AAGACACA, the binding signal is -0.0287 E-score.

Consider GGGTGCCA, for which the binding signal was -0.182 E-score.

Regarding CTATTTCC, the binding signal stood at 0.157 E-score.

Sequence GAAGTCTC returned a binding signal of -0.249 E-score.

For CGTGCATC, the binding signal is -0.163 E-score.

Regarding CGGCCCCC, the binding signal is -0.402 E-score.

Turning to CTTAGGAA, the binding signal was 0.0107 E-score.

The sequence AATGAACT registered a binding signal of -0.135 E-score.

On to AGGCTCAC, for which the binding signal was -0.169 E-score.

On to ATCCGACG, for which the binding signal was -0.0245 E-score.

Sequence AGAATTGC showed a binding signal of 0.124 E-score.

Take GATAGGGC: the binding signal was -0.00393 E-score.

For ACCGGTGG, the binding signal is -0.0505 E-score.

With GGTAGTGA, the binding signal worked out at 0.144 E-score.

ATGACGGC showed a binding signal of -0.0573 E-score.

For the sequence CTGTGCCA, the binding signal was -0.186 E-score.

Take CCAAGAGA: the binding signal is -0.11 E-score.

CTGGGTTA yielded a binding signal of -0.107 E-score.

The sequence ACGCTTAC yielded a binding signal of -0.0511 E-score.

For GGCAAGTA, the binding signal was 0.0714 E-score.

Sequence CTTCCTGA registered a binding signal of -0.00749 E-score.

GGGTACCC: the binding signal was -0.389 E-score.

For GTGTGGTA, the binding signal was found to be 0.242 E-score.

In turn, GTGTCACA returned a binding signal of 0.0159 E-score.

As for AGAGCGAG, the binding signal is 0.0284 E-score.

For the sequence ACGGAACC, the binding signal is -0.0209 E-score.

The sequence ATCCTACA showed a binding signal of 0.058 E-score.

For the sequence GACGTAAA, the binding signal came to 0.0266 E-score.

AAGCTGTA: the binding signal is -0.0302 E-score.

For the sequence AATGGATG, the binding signal was 0.158 E-score.

As for CGCATCGA, the binding signal is -0.0153 E-score.

The sequence CATCACAA came in with a binding signal of 0.149 E-score.

AGGTGTGA displayed a binding signal of -0.101 E-score.

Turning to CTCAGACC, the binding signal was -0.229 E-score.

CGCTCTGA returned a binding signal of -0.0645 E-score.

The sequence GAGACATA yielded a binding signal of 0.0654 E-score.

Sequence GATTTACC displayed a binding signal of 0.187 E-score.

With ATCGTGGC, the binding signal is -0.0133 E-score.

On to TACAGGGA, for which the binding signal is -0.081 E-score.

As to CAACGTCA, the binding signal is -0.073 E-score.

The sequence ATGTGCGA came in with a binding signal of -0.123 E-score.

On to CCCGCAAA, for which the binding signal was -0.076 E-score.

CGGCTATA returned a binding signal of 0.0143 E-score.

As for CCATATGG, the binding signal was -0.0199 E-score.

Take AGGCAACT: the binding signal was found to be 0.0567 E-score.

Sequence GGAAGGAA had a binding signal of -0.332 E-score.

For the sequence GCCTCCGC, the binding signal is -0.236 E-score.

For the sequence TATCGATA, the binding signal worked out at 0.303 E-score.

AGCTAGCA registered a binding signal of 0.176 E-score.

On to ACAGTCCG, for which the binding signal is -0.132 E-score.

In turn, ACCAGGAT had a binding signal of -0.0854 E-score.

As to CACTCACC, the binding signal amounted to 0.0162 E-score.

For the sequence TATTTTGA, the binding signal was 0.257 E-score.

Turning to ATCGGACA, the binding signal worked out at 0.109 E-score.

CGGGTTCA registered a binding signal of -0.177 E-score.

The sequence AGCAAGGG displayed a binding signal of -0.251 E-score.

As to CTAGTACA, the binding signal stood at 0.265 E-score.

Turning to GACACGGC, the binding signal is -0.198 E-score.

ACCGGCCA: the binding signal is -0.162 E-score.

As to CGAGTAGC, the binding signal was -0.0476 E-score.

For CTCGGGTC, the binding signal was -0.157 E-score.

For TAGGTCCA, the binding signal stood at 0.013 E-score.

Take TGTCCTAA: the binding signal is -0.0439 E-score.

As for AGTAATGC, the binding signal came to 0.0683 E-score.

In turn, AGCAACCG came in with a binding signal of -0.275 E-score.

The sequence CTCCGATC registered a binding signal of 0.0487 E-score.

With CTCTAATA, the binding signal was found to be 0.0815 E-score.

GGCAAGGA came in with a binding signal of -0.176 E-score.

In the case of CCATCAAC, the binding signal was -0.105 E-score.

On to AGATTCAC, for which the binding signal came out at 0.181 E-score.

On to CCCCTGGA, for which the binding signal is -0.287 E-score.

CACCATGA had a binding signal of -0.191 E-score.

ATCCCATA showed a binding signal of 0.101 E-score.

Sequence GAGATGAA registered a binding signal of -0.0161 E-score.

The sequence AAAGCGCG yielded a binding signal of -0.142 E-score.

ACGGGAAT: the binding signal was determined as 0.0186 E-score.

ATCCCTAC: the binding signal was determined as 0.152 E-score.

AACGTCAA: the binding signal was -0.0249 E-score.

GTTTGAAA: the binding signal is -0.0461 E-score.

Take GCCGTTGA: the binding signal was -0.2 E-score.

GTGTTGCA registered a binding signal of 0.0799 E-score.

With GGGCTGAA, the binding signal was -0.23 E-score.

AGTTAGAT showed a binding signal of 0.196 E-score.

The sequence CCCTTCGC yielded a binding signal of -0.198 E-score.

For AAATCGCA, the binding signal came out at 0.0229 E-score.

As for CTGAACTC, the binding signal worked out at 0.0121 E-score.

With ATGTGTAC, the binding signal came out at 0.15 E-score.

In turn, AAAAGAAA gave a binding signal of -0.0747 E-score.

In turn, GGAGCTAC had a binding signal of 0.0767 E-score.

ACGCCGAA: the binding signal was -0.188 E-score.

Consider GCAAAGTA, for which the binding signal was 0.115 E-score.

Take AGGGCAGG: the binding signal was -0.171 E-score.

As for CGTGTGAA, the binding signal is -0.175 E-score.

For CGTAATCA, the binding signal was -0.102 E-score.

For CGCGCTTA, the binding signal was 0.0614 E-score.

For the origin of these results see publication PMC6212790.
